From US10456379B2, “Imidazole-based antimicrobial agents” (priority 2014, dated 2019)

Assays:
[1] = system: Human hepatocytes (HepaRG cells); experiment: Human cytotoxicity assay in vitro (CellTiter-Glo), hepatocytes; format: cell-based; design: key: 4: inhibiting cell viability 50% or more at concentrations of 10 μM or less; 3: causing at least 80% inhibition of viability at 25 μM; showing toxicity at 25 μM, but causing less than 20% inhibition of viability; 1: not causing a loss of viability at concentrations between 25 and 50 μM; without signs of cell viability loss at concentrations of 50 μM or higher
[2] = system: Human keratinocytes (HaCaT cells); experiment: Human cytotoxicity assay in vitro (CellTiter-Glo), keratinocytes; format: cell-based
[3] = system: Staphylococcus aureus MRSA (COL); experiment: Broth microdilution MIC assay, Staphylococcus aureus MRSA (COL); format: cell-based; settings: MIC class score, MIC100, broth microdilution, COL strain
[4] = system: Staphylococcus aureus MSSA (Newman); experiment: Broth microdilution MIC assay, Staphylococcus aureus MSSA (Newman); format: cell-based; settings: MIC class score, MIC100, broth microdilution, Newman strain
[5] = system: Streptococcus pneumoniae (Chester, ATCC49619); experiment: Broth microdilution MIC assay, Streptococcus pneumoniae; format: cell-based; settings: MIC class score, MIC100, broth microdilution
[6] = system: Mycobacterium smegmatis (mc(2)155); experiment: Broth microdilution MIC assay, Mycobacterium smegmatis

## Cc1[nH]c(-c2cc(C)n(-c3ccc(Cl)cc3)c2C)nc1-c1ccccc1 [compound 8]
[1]
  cytotoxicity, cell line H (hepatocytes), class: 2
[2]
  cytotoxicity, cell line K (keratinocytes), class: 1 (causing less than 50% inhibition of cell viability at 50 μM)
[3]
  Antibacterial activity Staphylococcus aureus (MRSA): 1 (MIC100 of 20-50 μg/ml or an MIC50 of <10 μg/ml)

## Cc1[nH]c(-c2cc(C)n(-c3ccc(F)cc3F)c2C)nc1-c1ccccc1 [compound 9]
[1]
  cytotoxicity, cell line H (hepatocytes), class: 3
[2]
  cytotoxicity, cell line K (keratinocytes), class: 2 (causing >50% inhibition of cell viability at 25 μM)
[3]
  Antibacterial activity Staphylococcus aureus (MRSA): 1 (MIC100 of 20-50 μg/ml or an MIC50 of <10 μg/ml)

## Cc1nc(-c2ccc(-c3ccc(Cl)cc3Cl)o2)[nH]c1-c1ccc(F)cc1 [compound 16]
[1]
  cytotoxicity, cell line H (hepatocytes), class: 3
[2]
  cytotoxicity, cell line K (keratinocytes), class: 1 (causing less than 50% inhibition of cell viability at 50 μM)
[4]
  Antibacterial activity Staphylococcus aureus (MSSA): 4 (MIC of 1 μg/ml to 3 μg/ml for preventing staphylococcal growth 100% (MIC100))

## Cc1nc(-c2ccc(-c3ccccc3OC(F)(F)F)o2)[nH]c1-c1ccccc1Cl [compound 19]
[1]
  cytotoxicity, cell line H (hepatocytes), class: 3
[2]
  cytotoxicity, cell line K (keratinocytes), class: 0 (not causing loss of cell viability at concentrations of 50 μM or higher)
[4]
  Antibacterial activity Staphylococcus aureus (MSSA): 1 (MIC100 of 20-50 μg/ml or an MIC50 of <10 μg/ml)
[3]
  Antibacterial activity Staphylococcus aureus (MRSA): 1 (MIC100 of 20-50 μg/ml or an MIC50 of <10 μg/ml)

## Cc1[nH]c(-c2ccc(-c3ccccc3OC(F)(F)F)o2)nc1-c1ccc(F)cc1 [compound 23, 4-(4-Fluoro-phenyl)-5-methyl-2-[5-(2-trifluoromethoxy-phenyl)-furan-2-yl]-1H-imidazole]
[1]
  cytotoxicity, cell line H (hepatocytes), class: 3
[2]
  cytotoxicity, cell line K (keratinocytes), class: 2 (causing >50% inhibition of cell viability at 25 μM)
[5]
  Antibacterial activity Streptococcus pneumoniae: 4 (MIC of 1 μg/ml or less for preventing streptococcal growth 100% (MIC100))
[3]
  Antibacterial activity Staphylococcus aureus (MRSA): 4 (MIC of 1 μg/ml to 3 μg/ml for preventing staphylococcal growth 100% (MIC100))

## Cc1[nH]c(-c2ccc(-c3ccccc3OC(F)(F)F)o2)nc1Cc1ccc(Br)cc1 [compound 30, 4-(4-Bromo-benzyl)-5-methyl-2-[5-(2-trifluoromethoxy-phenyl)-furan-2-yl]-1H-imidazole]
[1]
  cytotoxicity, cell line H (hepatocytes), class: 3
[2]
  cytotoxicity, cell line K (keratinocytes), class: 3 (causing more than 50% inhibition of cell viability at 10 μM)
[5]
  Antibacterial activity Streptococcus pneumoniae: 4 (MIC of 1 μg/ml or less for preventing streptococcal growth 100% (MIC100))

## COc1ccc(-c2ccc(-c3nc(C)c(-c4ccccc4)[nH]3)o2)c(C(F)(F)F)c1 [compound 31]
[1]
  cytotoxicity, cell line H (hepatocytes), class: 3
[2]
  cytotoxicity, cell line K (keratinocytes), class: 0 (not causing loss of cell viability at concentrations of 50 μM or higher)
[5]
  Antibacterial activity Streptococcus pneumoniae: 4 (MIC of 1 μg/ml or less for preventing streptococcal growth 100% (MIC100))

## Cc1[nH]c(-c2ccn(-c3ccccc3C(F)(F)F)c2)nc1-c1ccccc1 [compound 33]
[2]
  cytotoxicity, cell line K (keratinocytes), class: 3 (causing more than 50% inhibition of cell viability at 10 μM)
[3]
  Antibacterial activity Staphylococcus aureus (MRSA): 1 (MIC100 of 20-50 μg/ml or an MIC50 of <10 μg/ml)

## Cc1nc(-c2ccc(-c3cccc(OC(F)(F)F)c3)o2)[nH]c1-c1ccc(F)cc1 [compound 37]
[1]
  cytotoxicity, cell line H (hepatocytes), class: 3
[2]
  cytotoxicity, cell line K (keratinocytes), class: 2 (causing >50% inhibition of cell viability at 25 μM)
[5]
  Antibacterial activity Streptococcus pneumoniae: 4 (MIC of 1 μg/ml or less for preventing streptococcal growth 100% (MIC100))

## Cc1[nH]c(-c2ccc(-c3cccc(C(F)(F)F)c3)o2)nc1-c1ccc(F)cc1 [compound 38]
[1]
  cytotoxicity, cell line H (hepatocytes), class: 1 (not causing a loss of viability at concentrations between 25 and 50 μM)
[2]
  cytotoxicity, cell line K (keratinocytes), class: 2 (causing >50% inhibition of cell viability at 25 μM)
[4]
  Antibacterial activity Staphylococcus aureus (MSSA): 4 (MIC of 1 μg/ml to 3 μg/ml for preventing staphylococcal growth 100% (MIC100))

## Cc1[nH]c(-c2ccc(-c3ccc(Cl)c(C(F)(F)F)c3)o2)nc1-c1ccccc1 [compound 39]
[1]
  cytotoxicity, cell line H (hepatocytes), class: 1 (not causing a loss of viability at concentrations between 25 and 50 μM)
[2]
  cytotoxicity, cell line K (keratinocytes), class: 2 (causing >50% inhibition of cell viability at 25 μM)
[5]
  Antibacterial activity Streptococcus pneumoniae: 4 (MIC of 1 μg/ml or less for preventing streptococcal growth 100% (MIC100))

## Cc1nc(-c2ccc(-c3ccc(C(F)(F)F)cc3)o2)[nH]c1-c1ccccc1 [compound 45]
[1]
  cytotoxicity, cell line H (hepatocytes), class: 1 (not causing a loss of viability at concentrations between 25 and 50 μM)
[2]
  cytotoxicity, cell line K (keratinocytes), class: 1 (causing less than 50% inhibition of cell viability at 50 μM)
[5]
  Antibacterial activity Streptococcus pneumoniae: 4 (MIC of 1 μg/ml or less for preventing streptococcal growth 100% (MIC100))

## Cc1[nH]c(-c2ccc(-c3ccc(C(F)(F)F)cc3)s2)nc1-c1ccccc1 [compound 46]
[1]
  cytotoxicity, cell line H (hepatocytes), class: 1 (not causing a loss of viability at concentrations between 25 and 50 μM)
[2]
  cytotoxicity, cell line K (keratinocytes), class: 1 (causing less than 50% inhibition of cell viability at 50 μM)
[6]
  Antibacterial activity, MS (Mycobacterium smegmatis), MIC class: 1 (MIC100 of 20-50 μg/ml or an MIC50 of <10 μg/ml)

## Cc1[nH]c(-c2ccc(-c3ccc(C(F)(F)F)cc3)o2)nc1-c1ccc(Cl)cc1 [compound 47]
[1]
  cytotoxicity, cell line H (hepatocytes), class: 1 (not causing a loss of viability at concentrations between 25 and 50 μM)
[2]
  cytotoxicity, cell line K (keratinocytes), class: 2 (causing >50% inhibition of cell viability at 25 μM)
[4]
  Antibacterial activity Staphylococcus aureus (MSSA): 4 (MIC of 1 μg/ml to 3 μg/ml for preventing staphylococcal growth 100% (MIC100))

## Cc1[nH]c(-c2ccc(-c3ccc(OC(F)(F)F)cc3Cl)o2)nc1-c1ccc(F)cc1 [compound 51]
[1]
  cytotoxicity, cell line H (hepatocytes), class: 3
[2]
  cytotoxicity, cell line K (keratinocytes), class: 3 (causing more than 50% inhibition of cell viability at 10 μM)
[3]
  Antibacterial activity Staphylococcus aureus (MRSA): 1 (MIC100 of 20-50 μg/ml or an MIC50 of <10 μg/ml)

## Cc1ccc(-c2ccc(-c3nc(-c4ccccc4)c(C)[nH]3)o2)cc1 [compound 52]
[1]
  cytotoxicity, cell line H (hepatocytes), class: 3
[2]
  cytotoxicity, cell line K (keratinocytes), class: 2 (causing >50% inhibition of cell viability at 25 μM)
[5]
  Antibacterial activity Streptococcus pneumoniae: 4 (MIC of 1 μg/ml or less for preventing streptococcal growth 100% (MIC100))

## Cc1ccccc1-c1c[nH]c(-c2ccc(-c3ccccc3OC(F)(F)F)o2)n1 [compound 66]
[1]
  cytotoxicity, cell line H (hepatocytes), class: 3
[2]
  cytotoxicity, cell line K (keratinocytes), class: 1 (causing less than 50% inhibition of cell viability at 50 μM)
[5]
  Antibacterial activity Streptococcus pneumoniae: 4 (MIC of 1 μg/ml or less for preventing streptococcal growth 100% (MIC100))

## Cc1[nH]c(-c2ccc(-c3ccccc3OC(F)(F)F)o2)nc1-c1ccc(O)cc1 [compound 76]
[3]
  Antibacterial activity Staphylococcus aureus (MRSA): 4 (MIC of 1 μg/ml to 3 μg/ml for preventing staphylococcal growth 100% (MIC100))

## FC(F)(F)c1ccccc1-c1ccc(-c2nc3c([nH]2)CCCC3)o1 [compound 87]
[3]
  Antibacterial activity Staphylococcus aureus (MRSA): 4 (MIC of 1 μg/ml to 3 μg/ml for preventing staphylococcal growth 100% (MIC100))

## FC(F)(F)Oc1ccccc1-c1ccc(-c2nc3c([nH]2)CCCC3)o1 [compound 88]
[3]
  Antibacterial activity Staphylococcus aureus (MRSA): 4 (MIC of 1 μg/ml to 3 μg/ml for preventing staphylococcal growth 100% (MIC100))

## CCCc1[nH]c(-c2ccc(-c3ccccc3OC(F)(F)F)o2)nc1C [compound 89]
[3]
  Antibacterial activity Staphylococcus aureus (MRSA): 4 (MIC of 1 μg/ml to 3 μg/ml for preventing staphylococcal growth 100% (MIC100))

## CCCCc1nc(-c2ccc(-c3ccccc3C(F)(F)F)o2)[nH]c1C [compound 90]
[3]
  Antibacterial activity Staphylococcus aureus (MRSA): 4 (MIC of 1 μg/ml to 3 μg/ml for preventing staphylococcal growth 100% (MIC100))

## CCCCc1[nH]c(-c2ccc(-c3ccccc3OC(F)(F)F)o2)nc1C [compound 91]
[3]
  Antibacterial activity Staphylococcus aureus (MRSA): 4 (MIC of 1 μg/ml to 3 μg/ml for preventing staphylococcal growth 100% (MIC100))

## Cc1nc(-c2ccc(-c3ccccc3C(F)(F)F)o2)[nH]c1CC(C)C [compound 92]
[3]
  Antibacterial activity Staphylococcus aureus (MRSA): 4 (MIC of 1 μg/ml to 3 μg/ml for preventing staphylococcal growth 100% (MIC100))

## CCCc1[nH]c(-c2ccc(-c3ccccc3Cl)o2)nc1C [compound 95]
[3]
  Antibacterial activity Staphylococcus aureus (MRSA): 4 (MIC of 1 μg/ml to 3 μg/ml for preventing staphylococcal growth 100% (MIC100))

## CCCc1nc(-c2ccc(-c3cccc(C(F)(F)F)c3)o2)[nH]c1C [compound 99]
[3]
  Antibacterial activity Staphylococcus aureus (MRSA): 4 (MIC of 1 μg/ml to 3 μg/ml for preventing staphylococcal growth 100% (MIC100))

## CCCc1[nH]c(-c2ccc(-c3ccccc3C(F)(F)F)o2)nc1C [compound 101]
[3]
  Antibacterial activity Staphylococcus aureus (MRSA): 4 (MIC of 1 μg/ml to 3 μg/ml for preventing staphylococcal growth 100% (MIC100))

## CCCc1[nH]c(-c2ccc(-c3cc4ccccc4o3)o2)nc1C [compound 106]
[3]
  Antibacterial activity Staphylococcus aureus (MRSA): 4 (MIC of 1 μg/ml to 3 μg/ml for preventing staphylococcal growth 100% (MIC100))

## CCCc1[nH]c(-c2ccc(-c3ccc(N4CCN(C)CC4)cc3)o2)nc1C [compound 107]
[5]
  Antibacterial activity Streptococcus pneumoniae: 1 (MIC100 of 11-20 μg/ml or an MIC50 of <10 μg/ml)
[3]
  Antibacterial activity Staphylococcus aureus (MRSA): 1 (MIC100 of 20-50 μg/ml or an MIC50 of <10 μg/ml)

## Cc1nc(-c2cc(C)n(-c3ccccc3F)c2C)[nH]c1-c1ccccc1 [compound 119]
[5]
  Antibacterial activity Streptococcus pneumoniae: 1 (MIC100 of 11-20 μg/ml or an MIC50 of <10 μg/ml)
[3]
  Antibacterial activity Staphylococcus aureus (MRSA): 1 (MIC100 of 20-50 μg/ml or an MIC50 of <10 μg/ml)

## Cc1nc(-c2ccc(-c3cccc(C(F)(F)F)c3)o2)[nH]c1-c1ccccc1 [compound 142]
[4]
  Antibacterial activity Staphylococcus aureus (MSSA): 4 (MIC of 1 μg/ml to 3 μg/ml for preventing staphylococcal growth 100% (MIC100))
[3]
  Antibacterial activity Staphylococcus aureus (MRSA): 4 (MIC of 1 μg/ml to 3 μg/ml for preventing staphylococcal growth 100% (MIC100))
